From the supplement of paper PMC10126150
Sequences with one replicate were seen in a single cluster, so their values are uncertain.

What follows are sequences tested on ATP (assay: switch fluorescence ratio, 500 uM ATP over buffer (Cy3 cluster intensity, sum of 5 cycles each) (fold (ratio)); higher = stronger signal-on switching upon ATP binding; sequences stand for … in TCGTCGGCAGCGTCAGATGTGTATAAGAGACAGTTTTTTTTTTTTTTTTTTTTTTTTT…TC). Settings: aptamer strand: ATP DNA aptamer (quencher-CACCTGGGGGAGTATTGCGGAGGAAGG + anchor), 100 nM annealed; ATP concentration: 500 uM; one replicate.
Method in brief: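 Between each of five buffer/ATP cycles, the flow-cell was stripped with NaOH and re-annealed. Each cycle imaged Cy3-labelled switching-strand clusters, annealed to 100 nM quencher-labelled ATP aptamer on a modified Illumina MiSeq flow-cell, first in selection buffer and then after 15 min with 500 uM ATP at 22 °C. The fluorescence ratio is summed target-cycle over summed buffer-cycle Cy3 intensity per cluster, averaged per switch-domain sequence, with clusters outside 100-1000 RFU excluded.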
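Further: ATP exposure 15 min at 22 °C before imaging.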

Sequence | switch fluorescence ratio
GCACGAAGGC | 1
GCACGCTCTG | 1.04
GCACGGCCGC | 1.2
GCACGGCTGG | 1.04
GCACGTAAGG | 1.17
GCACGTTGGG | 1.02
GCACTAAAGC | 0.962
GCACTCAGAA | 0.988
GCACTCTTTA | 1.02
GCACTGCGAG | 0.968
GCACTGGCCC | 1.05
GCACTTGCTG | 1.01
GCACTTTTCA | 0.965
GCAGAACTTT | 1.07
GCAGAAGTTC | 1.03
GCAGACTAGA | 1.01
GCAGAGCAGG | 1.16
GCAGAGCGAT | 1.09
GCAGAGGGAG | 0.989
GCAGATGCAA | 0.984
GCAGATTCCA | 0.989
GCAGCAACG | 1.18
GCAGCACACA | 1.34
GCAGCCGTTC | 1.04
GCAGCTGATT | 1.02

Sequence | switch fluorescence ratio
GCAGCTGCCT | 1.05
GCAGGAATAA | 1.33
GCAGGCTAAG | 0.972
GCAGTACGC | 1.49
GCAGTTCCGA | 1.07
GCAGTTTGAC | 1.05
GCATACAGAG | 1.04
GCATAGAAAT | 0.96
GCATAGATCT | 0.967
GCATAGGACC | 1.28
GCATATAATA | 0.976
GCATATCTGA | 0.964
GCATCAAACA | 1
GCATCTTTTA | 1.02
GCATGAAGAC | 1.08
GCATGACAAT | 1.03
GCATGATGCC | 0.949
GCATGCAAAA | 1.03
GCATGCGCCT | 1.06
GCATGCTTGA | 1.01
GCATGGGATC | 1.03
GCATGGGG | 1.02
GCATGGTATA | 0.975
GCATGTATAA | 1.02
GCATGTATCC | 1.09

Sequence | switch fluorescence ratio
GCATGTGTTA | 0.964
GCATTAGCAG | 1.03
GCATTCACTG | 1.04
GCATTCTCAA | 0.988
GCATTGAGGA | 1.02
GCATTGCCTG | 0.944
GCATTTAGCG | 0.992
GCATTTGAG | 0.959
GCATTTTAGT | 0.963
GCCAAAAGTG | 0.988
GCCAACCCAT | 0.97
GCCAACGTGC | 1.09
GCCAAGGAGC | 0.984
GCCAAGGCGG | 0.998
GCCAAGT | 0.971
GCCACGCAGC | 1.14
GCCACGTGTT | 0.981
GCCACTGGGG | 1.01
GCCAGAATCA | 0.975
GCCAGAATTT | 0.991
GCCAGATGCA | 1.02
GCCAGATTGC | 1.05
GCCAGCGCTT | 0.983
GCCAGCGTGA | 1.19
GCCAGCTGTA | 1.01

Sequence | switch fluorescence ratio
GCCAGGACGT | 0.991
GCCAGTTTTC | 0.93
GCCATAGATG | 1
GCCATCCACA | 1.06
GCCATCGCAT | 1.13
GCCATGCTGC | 0.937
GCCATTGAA | 1.01
GCCATTGG | 0.977
GCCCACAAAT | 0.986
GCCCACTCCT | 1.02
GCCCACTTGG | 1.03
GCCCCCGTTG | 1.33
GCCCCCTCAG | 3.55
GCCCGAGGTT | 1.03
GCCCGATCTA | 1.16
GCCCGCGAAC | 6.92
GCCCGCGCGT | 1.05
GCCCGGACAG | 1.03
GCCCGGTAGC | 1.06
GCCCGTACCT | 1.11
GCCCTACTCA | 1.13
GCCCTATCTA | 1.02
GCCCTATTT | 0.998
GCCCTGGGGG | 1.05
GCCCTGGTAA | 0.987
